This note sets out measurements from the supplement of paper PMC9446081.

The campaign covered roughly 39,000 compounds. About 220 (0.56%) showed activity. The list shows a part of the results.
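Note: static incubation at 37 °C against the wild-type strain, values averaged over two biological replicates.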

The test system of the experiment is Escherichia coli K-12 BW25113. In words: relative growth (OD600 normalised to plate interquartile mean) (fraction); higher = less growth inhibition, active = 0.2 or less. Particulars: 50 µM; LB; incubation time: overnight (16-24 h).
Regarding `COc1cccc(CNC(=O)C[C@@H]2C=C[C@@H](NC(=O)C3CCOCC3)[C@@H](CO)O2)c1`, the relative growth was inactive: 0.983. Under `C[C@@H]1CN([C@@H](C)CO)C(=O)c2cc(NS(=O)(=O)c3cccs3)ccc2O[C@@H](C)CCCCO[C@@H]1CN(C)C(=O)CCC(F)(F)F` stands inactive: 1.03; under `Cc1ccc(S(=O)(=O)Nc2ccc3c(c2)C(=O)N([C@@H](C)CO)C[C@@H](C)[C@H](CN(C)S(=O)(=O)c2ccc(Cl)cc2)OCCCC[C@@H](C)O3)cc1`, inactive: 1.01; under `C[C@H](CO)N1C[C@H](C)[C@H](CN(C)S(=O)(=O)c2ccc(Cl)cc2)OCCCC[C@H](C)Oc2ccc(NS(=O)(=O)c3ccccc3)cc2C1=O`, inactive: 1. With `COc1ccc2c3c(n(c2c1)C)[C@H](CO)N(C[C@]13CCN(CC1)C(=O)C1CCOCC1)C(=O)C1CCOCC1`, the relative growth was inactive: 0.967. On to `COc1ccc2c3c(n(c2c1)C)[C@H](CO)N(Cc1ccccc1Cl)C[C@]13CCN(CC1)C(=O)CC1CC1`, for which the relative growth was inactive: 0.953. Turning to `C[C@@H]1CN([C@@H](C)CO)S(=O)(=O)c2ccc(C#Cc3cccnc3)cc2O[C@@H]1CN(C)CC1CCOCC1`, the relative growth was inactive: 1.

For `O=C(C[C@H]1C[C@@H]2c3cc(NC(=O)Cc4ccncc4)ccc3O[C@@H]2[C@@H](CO)O1)NCc1ccc2c(c1)OCO2`, the relative growth was inactive: 0.999. For the molecule `CCc1nnc(N)o1`, the relative growth was inactive: 0.986.

With `O=c1c(O)nnc2n1CCN2c1ccccc1`, the relative growth was inactive: 0.954. `C[C@H]1CCCCO[C@@H](CN(C)Cc2ccccc2)[C@@H](C)CN([C@@H](C)CO)C(=O)c2cc(NC(=O)Nc3ccccc3)ccc2O1`: the relative growth is inactive: 0.952. On to `COc1cccc(S(=O)(=O)Nc2ccc3c(c2)[C@@H]2C[C@@H](CC(=O)NCc4cccc(F)c4)O[C@@H](CO)[C@@H]2O3)c1`, for which the relative growth was inactive: 0.988.

In the case of `C[C@@H]1CN([C@H](C)CO)C(=O)Cc2cc(NC(=O)c3ccncc3)ccc2O[C@H]1CN(C)Cc1ccc2c(c1)OCO2`, the relative growth is inactive: 1.02.

With `COc1cc(C(=O)O[C@H]2CC[C@@]3(C)[C@@H]4CC[C@H]5[C@]6(O)C[C@H](O)[C@@]7(O)[C@@H](CN8C[C@@H](C)CC[C@H]8[C@@]7(C)O)[C@]6(O)C[C@@]53O[C@@]24O)cc(OC)c1OC`, the relative growth is inactive: 0.989. As to `Cc1noc(C)c1S(=O)(=O)Nc1ccc2c(c1)C(=O)N([C@@H](C)CO)C[C@H](C)[C@H](CN(C)Cc1ccc(-c3ccccc3)cc1)O2`, the relative growth was inactive: 0.996.

`OCC1(CO)COC2(CCCCC2)N1`: the relative growth was inactive: 1.01. As to `CO[C@@H]1CN(C)C(=O)c2ccc(NS(C)(=O)=O)cc2OC[C@@H](C)N(C(=O)C2CCOCC2)C[C@H]1C`, the relative growth was inactive: 1.03. The result for `O=C(C[C@@H]1CC[C@H]2[C@@H](COC[C@@H](O)CN2C(=O)c2cccnc2)O1)NCc1ccc(-c2ccccc2)cc1` reads inactive: 1.02; that for `Nc1cccc(-c2cccs2)c1`, inactive: 0.976.

With `Cc1ccc(S(=O)(=O)N2CCN(CC(=O)N/N=C/c3ccccn3)CC2)cc1`, the relative growth was inactive: 0.984. As for `NC(=O)N1C(=O)[C@H]2[C@H](C1=O)[C@H]1C=C(CCCO)[C@@H]2[C@H](c2cccs2)N1Cc1cc2c(cc1Br)OCO2`, the relative growth was inactive: 1.01. Under `COc1ccc2c3c([nH]c2c1)[C@H](CO)N(C[C@]13CCN(CC1)C(=O)CN(C)C)S(=O)(=O)C` stands inactive: 1.01.

On to `COc1ccc(NC(=O)N(C)C[C@@H]2OCc3cn(nn3)CCCC(=O)N([C@@H](C)CO)C[C@@H]2C)c(OC)c1`, for which the relative growth is inactive: 0.978.

`CN1CCN(C(=O)C[C@@H]2CC[C@@H]3[C@@H](COc4ccc(NC(=O)c5ccc(F)c(F)c5)cc4C(=O)N3C)O2)CC1`: the relative growth is inactive: 0.999. On to `Nc1nc(=O)[nH]cc1F`, for which the relative growth was inactive: 0.935.

For `C[C@@H]1CN([C@H](C)CO)C(=O)Cc2cc(NC(=O)Cn3cnnn3)ccc2O[C@H]1CN(C)Cc1ccccc1`, the relative growth is inactive: 0.857. Under `COc1ccc(CN(C)C[C@@H]2OCCCC[C@@H](C)Oc3ccc(NC(=O)Nc4ccc5c(c4)OCO5)cc3C(=O)N([C@@H](C)CO)C[C@@H]2C)cc1` stands inactive: 0.953; under `COc1ccccc1CNC(=O)C[C@H]1C[C@H]2c3cc(NC(=O)c4cccnc4)ccc3O[C@H]2[C@H](CO)O1`, inactive: 0.974.

For `O=C(C[C@@H]1C=C[C@H](NS(=O)(=O)c2ccccc2F)[C@H](CO)O1)NCCCN1CCOCC1`, the relative growth is inactive: 1.04. Take `C[C@H](CO)N1C[C@H](C)[C@H](CN(C)Cc2ccc(C(=O)O)cc2)Oc2ccc(NC(=O)Nc3cccc4ccccc34)cc2CC1=O`: the relative growth is inactive: 0.994.

Take `CN(C)CCCN1c2ccccc2Sc2ccccc21.Cl`: the relative growth is inactive: 0.886. The result for `C[C@H](CO)N1C[C@H](C)[C@@H](CN(C)Cc2ccc3c(c2)OCO3)Oc2ccc(NC(=O)Cn3cnnn3)cc2C1=O` reads inactive: 1; that for `COc1ccc(CN(C)C[C@H]2OCCCC[C@@H](C)Oc3ccc(NS(=O)(=O)c4ccc(F)cc4)cc3C(=O)N([C@@H](C)CO)C[C@H]2C)cc1`, inactive: 1.02; that for `Cc1noc(C)c1S(=O)(=O)Nc1ccc2c(c1)C(=O)N([C@H](C)CO)C[C@H](C)[C@H](CN(C)S(=O)(=O)c1c(C)noc1C)O2`, inactive: 1.01. `C[C@H](CO)N1C[C@H](C)[C@@H](CN(C)C(=O)C2CCCCC2)Oc2ncc(C#CC3(O)CCCC3)cc2C1=O`: the relative growth is inactive: 1.02.

For `Cc1ccc(C(=O)Nc2ccc(Oc3cc4cnn(C)c4cc3-c3cn[nH]c3)c(F)c2)c(=O)n1-c1ccc(F)cc1`, the relative growth is inactive: 1.04. The result for `C[C@H]1CCCCO[C@@H](CN(C)S(=O)(=O)c2ccc(F)cc2)[C@@H](C)CN([C@@H](C)CO)C(=O)c2cc(NS(=O)(=O)c3ccc(Cl)cc3)ccc2O1` reads inactive: 1. The result for `CN(C)CCCNC(=O)C[C@H]1CC[C@H]2[C@@H](COC[C@H](O)CN2S(=O)(=O)c2ccc(F)cc2)O1` reads inactive: 0.991; that for `C[C@@H]1CCCCO[C@@H](CN(C)C(=O)Nc2ccc3c(c2)OCO3)[C@@H](C)CN([C@H](C)CO)C(=O)c2cc(NC(=O)CCC(F)(F)F)ccc2O1`, inactive: 0.996; that for `CC[C@H](C#CCN1CCOCC1)OC(C)=O`, inactive: 1. The result for `Cc1ccc(S(=O)(=O)Nc2ccc3c(c2)C(=O)N([C@@H](C)CO)C[C@H](C)[C@@H](CN(C)Cc2ccc4c(c2)OCO4)OCCCC[C@@H](C)O3)cc1` reads inactive: 1.01; that for `Cc1noc(C)c1S(=O)(=O)Nc1ccc2c(c1)CC(=O)N([C@H](C)CO)C[C@H](C)[C@@H](CN(C)S(=O)(=O)c1ccc(Cl)cc1)O2`, inactive: 0.939. Consider `C[C@H]1CCCCO[C@H](CN(C)Cc2ccc(C(=O)O)cc2)[C@@H](C)CN([C@@H](C)CO)C(=O)c2cc(NC(=O)c3ccccc3)ccc2O1`, for which the relative growth is inactive: 1.03. `C[C@H](CO)N1C[C@H](C)[C@@H](CN(C)C(=O)Cc2ccccc2)Oc2cc(-c3cncnc3)ccc2S1(=O)=O`: the relative growth is inactive: 0.973.

`COc1ccc2c3c(n(c2c1)C)[C@H](CO)N(C[C@]13CCN(CC1)C(=O)CC1CC1)C(=O)CN1CCOCC1`: the relative growth is inactive: 0.994.

Regarding `CN1CCCC(n2nc(Cc3ccc(Cl)cc3)c3ccccc3c2=O)CC1.Cl` (configuration not stated), the relative growth is inactive: 0.915. Regarding `COC(=O)c1c(CC[C@@H](CO)NC(=O)N[C@@H](Cc2ccccc2)Cn2cc(-c3ccccc3)nn2)oc(C(=O)N2CCOCC2)c1C(=O)OC`, the relative growth is inactive: 0.986. The result for `CN(C)CCCNC(=O)C[C@@H]1CC[C@H]2[C@@H](COc3ccc(NC(=O)NC4CCCC4)cc3C(=O)N2C)O1` reads inactive: 1.01; that for `CC(C)NC(=O)N(C)C[C@@H]1Oc2c(NC(=O)NC3CCCCC3)cccc2C(=O)N([C@@H](C)CO)C[C@H]1C`, inactive: 1.01; that for `C[C@@H]1CCCCO[C@H](CN(C)C(=O)Cc2ccccc2)[C@H](C)CN([C@@H](C)CO)C(=O)c2cc(NS(=O)(=O)c3ccc(Cl)cc3)ccc2O1`, inactive: 1.03. As for `O=C(NCCO)c1cccc(C(=O)NCCO)c1`, the relative growth is inactive: 0.988. Take `Cc1noc(C)c1NC(=O)Nc1ccc2c(c1)C(=O)N([C@H](C)CO)C[C@H](C)[C@H](CN(C)C(=O)Nc1ccc(C(F)(F)F)cc1)OCCCC[C@H](C)O2`: the relative growth was inactive: 1.06. For the molecule `OCCc1ccc(O)c(O[C@H]2O[C@@H](CO)[C@@H](O)[C@@H](O)[C@@H]2O)c1`, the relative growth was inactive: 0.934. Turning to `CN1C(=O)c2cc(NC(=O)Cc3cccs3)ccc2OC[C@H]2O[C@@H](CC(=O)NCCc3ccncc3)CC[C@H]21`, the relative growth was inactive: 0.886. Regarding `CCS(=O)(=O)N1C[C@]2(C1)CN([C@H](CO)c1c2c2ccc(cc2n1C)OC)C(=O)CN1CCOCC1`, the relative growth was inactive: 1.03. Regarding `O=C(O)c1ccc2ccccc2c1`, the relative growth is inactive: 1.02. For `C[C@@H]1CN([C@H](C)CO)C(=O)Cc2cc(NC(=O)CCC(F)(F)F)ccc2O[C@@H]1CN(C)C(=O)Nc1cccc2ccccc12`, the relative growth was inactive: 0.989. For the molecule `O=C(NC1CCC1)[C@@H]1[C@@H](CO)[C@@H]2Cn3c(cccc3=O)[C@@H]2N1CC1CCOCC1`, the relative growth is inactive: 1.01. The result for `COc1ccc(S(=O)(=O)Nc2ccc3c(c2)C(=O)N([C@@H](C)CO)C[C@H](C)[C@H](CN(C)Cc2ccc(-c4ccccc4)cc2)O3)cc1` reads inactive: 0.971. `COc1ccc(S(=O)(=O)N(C)C[C@H]2Oc3ccc(NC(=O)CCN4CCOCC4)cc3CC(=O)N([C@H](C)CO)C[C@H]2C)cc1`: the relative growth was inactive: 1.01. Turning to `C[C@@H]1CCCCO[C@@H](CN(C)Cc2ccccc2)[C@H](C)CN([C@@H](C)CO)C(=O)c2cc(NS(=O)(=O)c3ccc(F)cc3)ccc2O1`, the relative growth is inactive: 1. For the molecule `C[C@@H]1CN([C@H](C)CO)C(=O)Cc2cc(NC(=O)NC3CCCCC3)ccc2O[C@H]1CN(C)Cc1ccc(C(=O)Nc2ccccc2N)cc1`, the relative growth was inactive: 1.
